Assay results from PubChem BioAssay AID360 (National Center for Advancing Translational Sciences (NCATS), 2006).
The campaign covered roughly 48,000 compounds. About 550 (1.1%) were called active. Roughly 4% stayed inconclusive and do not appear here. Rule as the data show it: active = potency below about 15 µM; inconclusive = mostly about 16 µM to 33 µM; inactive = weaker than that. Some of the results follow.

biological target: Lysosomal acid glucosylceramidase (Homo sapiens) (UniProt P04062); assay: Glucocerebrosidase; conditions: purified enzyme, resorufin glucoside fluorescence (screen aimed at inhibitors), 20 min;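 also: the screen sought inhibitors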
How it was run: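 Wild-type enzyme at 0.2 nM final in 50mM citric acid/KH2PO4, 10mM sodium taurocholate, 0.01% tween-20, pH 5.9, with resorufin beta-D-glucopyranoside at 30 uM final. Compounds titrated, 20 min at RT, red fluorescence read; AC50 from titration.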
Potency is read from the fitted curve at half-maximal effect.

UniProt P04062, sequence (P04062 whole entry, looked up): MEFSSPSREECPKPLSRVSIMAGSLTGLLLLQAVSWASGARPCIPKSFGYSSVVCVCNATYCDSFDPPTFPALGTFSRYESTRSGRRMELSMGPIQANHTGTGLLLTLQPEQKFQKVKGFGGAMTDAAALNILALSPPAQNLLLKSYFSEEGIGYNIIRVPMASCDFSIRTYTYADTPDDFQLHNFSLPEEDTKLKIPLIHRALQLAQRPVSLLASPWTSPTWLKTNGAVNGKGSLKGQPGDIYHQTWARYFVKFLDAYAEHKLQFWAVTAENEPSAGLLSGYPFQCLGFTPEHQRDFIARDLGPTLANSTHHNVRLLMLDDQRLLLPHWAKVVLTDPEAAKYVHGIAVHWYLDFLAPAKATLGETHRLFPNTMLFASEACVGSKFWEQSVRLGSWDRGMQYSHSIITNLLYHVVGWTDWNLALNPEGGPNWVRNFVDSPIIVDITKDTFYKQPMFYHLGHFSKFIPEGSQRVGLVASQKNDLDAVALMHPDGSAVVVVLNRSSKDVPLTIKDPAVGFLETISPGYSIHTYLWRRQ

Potency, inactive:
COc1ccc(C2C(C(C)=O)=C(O)C(=O)N2CCO)c(OC)c1 (configuration not stated) > 76.9 µM, CCCn1nnc(NC(=O)Cc2ccc(Cl)cc2)n1 > 76.9 µM, c1ccc(-c2nn3c(-c4ccncc4)nnc3s2)nc1 > 76.9 µM, O=C(NCc1ccccn1)NC12CC3CC(CC(C3)C1)C2 > 76.9 µM, O=C1OCCC1Sc1nnc(-c2cccs2)n1Cc1ccccc1 (configuration not stated) > 76.9 µM, COc1ccc(CCN2CNc3c(c(=O)n(C)c(=O)n3C)C2)cc1OC > 76.9 µM, CCC(=O)N1CCN(C(C)=O)C1c1ccccc1 (configuration not stated) > 76.9 µM, CCCn1c(CNC(=O)Cc2ccccc2)nc2ccccc21 > 76.9 µM, CCOC(=O)c1nnn(-c2nc(OC)nc(N(C)C)n2)c1-c1ccccc1 > 76.9 µM, CCN1CCN(S(=O)(=O)Cc2ccccc2)CC1 > 76.9 µM, COc1cccc(C(=O)N(Cc2ccc(N(C)C)cc2)C2CCS(=O)(=O)C2)c1 (configuration not stated) > 76.9 µM, Cn1c(=O)[nH]c(=O)c2c1nc(CN(Cc1ccccc1)Cc1ccccc1)n2CCN1CCOCC1 > 76.9 µM, c1coc(-c2ncc[nH]2)c1 > 76.9 µM, COc1cccc(OC)c1C(=O)Nc1ccccc1N1CCCC1 > 76.9 µM, CCN(CC)CCN1C(=O)C(=O)/C(=C(/O)c2ccc(OC)c(OC)c2)C1c1ccccn1 (configuration not stated) > 76.9 µM, Cc1cccc(-c2nnc3sc(-c4ccccc4C)nn23)c1 > 76.9 µM, CC(=O)C(C(C)=O)C(NC(=O)c1cccnc1)(C(F)(F)F)C(F)(F)F > 76.9 µM, O=C(c1ccco1)N1CCN(S(=O)(=O)c2cccc3nsnc23)CC1 > 76.9 µM, CCn1c(SCC(=O)Nc2ccc3c(c2)OCO3)nnc1-c1cnccn1 > 76.9 µM, CC(C)OC(=O)C1C(=O)CC(C)(O)C(C(=O)OC(C)C)C1c1cccc(O)c1 (configuration not stated) > 76.9 µM, Fc1ccc(Cn2nnnc2CN2CCc3ccccc3C2)cc1 > 76.9 µM, CCS(=O)(=O)N1CCCC(C(=O)NCCCOC(C)C)C1 (configuration not stated) > 76.9 µM, COc1cc(-c2nnc(CSc3nnc4nc(C)cc(C)n34)o2)cc(OC)c1OC > 76.9 µM, CC(=O)Nc1ccc(NS(=O)(=O)c2ccc(Cl)c(C(=O)O)c2)cc1 > 76.9 µM, N#CC1=C(N)Oc2n[nH]c(-c3cccs3)c2C1c1ccco1 (configuration not stated) > 76.9 µM, COc1ccc(S(=O)(=O)N(C)CC(=O)N2CCOCC2)cc1Cl > 76.9 µM, O=C(NC1CCCCC1)N1CCC(c2nc3ccccc3[nH]2)CC1 > 76.9 µM, CCCSc1nc2c(c(=O)n(C)c(=O)n2C)n1Cc1ccc(C)cc1 > 76.9 µM, CN1CCN(C(=O)c2cnn3c(C(F)F)cc(C4CC4)nc23)CC1 > 76.9 µM, Cc1cnc(C(=O)OCC(=O)c2csc(N3CCCCC3)n2)cn1 > 76.9 µM, CCC(=O)Nc1ccc(-c2nn3c(C)nnc3s2)cc1C > 76.9 µM, CCC(C)(C)n1nnnc1C(c1cccs1)N1CCN(Cc2ccccc2)CC1 (configuration not stated) > 76.9 µM, CCC(CC)C(=O)Nc1cccc(C(=O)N2CCCCCC2)c1 > 76.9 µM, COc1ccc(CNC(=O)COC(=O)c2n[nH]c3ccccc23)cc1OC > 76.9 µM, Cc1cc(C)c(NC2=CC(=O)CC(C)(C)C2)c(C#N)c1 > 76.9 µM, COc1ccc(CCNC(=O)Cn2cnc3c2c(=O)n(C)c(=O)n3C)cc1OC > 76.9 µM, CN1C(=O)c2ccc(S(=O)(=O)c3ccc(C(=O)O)cc3)cc2C1=O > 76.9 µM, Nc1nnnn1/N=C/c1ccccc1C(F)(F)F > 76.9 µM, CC1Cc2ccccc2N1C(=O)CSc1nc2cc3c(cc2cc1C#N)OCO3 (configuration not stated) > 76.9 µM, CCOc1ccc(-n2c(SCC(=O)NCc3ccco3)nc3c(c2=O)SCC3)cc1 > 76.9 µM, CCOC(=O)/C=C1\SCC(=O)N1CC(O)CN1C(=O)CS/C1=C\C(=O)OCC > 76.9 µM, O=c1nc2scc(-c3ccccc3)n2c2ccccc12 > 76.9 µM, CCOc1ccccc1N1C(=O)CC(Sc2ncccc2C(=O)O)C1=O (configuration not stated) > 76.9 µM, CCCCCCC(C)n1[nH]c(=O)c2c(C)cc(=O)[nH]c21 (configuration not stated) > 76.9 µM, CCCn1c(SCC(=O)NCCc2ccccc2)nnc1-c1ccccn1 > 76.9 µM, FC(F)(F)c1cnc2c(c1)Nc1ccccc1S2 > 76.9 µM, CCOC(=O)C1=C(C)NC(=O)NC1c1c(OCC(=O)N2CCCCC2)ccc2ccccc12 (configuration not stated) > 76.9 µM, CCC(=O)N1CC2(C)CN(C(=O)CC)CC(C)(C1)C2 > 76.9 µM, COc1ccc(Cn2nnnc2C(C(C)C)N(Cc2ccco2)Cc2cccs2)cc1 (configuration not stated) > 76.9 µM, Cc1ccc2cc3c(NC(=O)C(C)C)nn(C)c3nc2c1 > 76.9 µM, Cc1ccc(CN2C(=O)CCC2C(=O)NCC2CCCO2)cc1 (configuration not stated) > 76.9 µM, Cc1ccc2cccc(NC(=O)C(F)(F)F)c2n1 > 76.9 µM, c1ccc2c(c1)nc1n2C2(N3CCOCC3)CCCC2C1N1CCOCC1 (configuration not stated) > 76.9 µM, CCc1ccc(NC2CC(=O)N(c3ccc(OC)cc3OC)C2=O)cc1 (configuration not stated) > 76.9 µM, Cc1ccnc(NC(=O)CCC2COc3ccccc3O2)c1 (configuration not stated) > 76.9 µM, CS(=O)(=O)N1CCCC(C(=O)NCCCN2CCc3ccccc3C2)C1 (configuration not stated) > 76.9 µM, CC1CC(C)CN(CCCNC(=O)C2CCCN(c3nnc(N4CCCC4=O)s3)C2)C1 (configuration not stated) > 76.9 µM, CCc1nc(Nc2ccncc2)c2oc3ccccc3c2n1 > 76.9 µM, CCc1ccccc1-n1c(SCC(=O)NC)nnc1-c1cccnc1 > 76.9 µM, CC1CCN(C(=O)CSc2ccc(-c3ccc(F)cc3)nn2)CC1 > 76.9 µM, O=C(OCC1CC(c2ccccn2)=NO1)c1ccc(Br)cc1 (configuration not stated) > 76.9 µM, Cc1ccc(-c2noc(CCC(=O)NCCN3CCN(Cc4ccccc4)CC3)n2)cc1 > 76.9 µM, CN1CCCC(OC(=O)CCCC(=O)OC2CCCN(C)C2)C1 (configuration not stated) > 76.9 µM, Cn1c(=O)n(Cc2ccccc2)c(=O)c2c1nc1n2CCCN1Cc1ccccc1 > 76.9 µM, O=C1N(c2ccc(Cl)c(Cl)c2)CN(Cc2ccccc2)CN1n1cnnc1 > 76.9 µM, CC1CCN(C(=O)N[C@@H](Cc2ccccc2)C(=O)O)CC1 > 76.9 µM, CCSC(=Nc1ccccc1)C1=C(O)COC1=O > 76.9 µM, CCOc1cc2[nH]c(=O)n(CC3CCC(C(=O)NCCC(C)C)CC3)c(=O)c2cc1OCC (configuration not stated) > 76.9 µM, CN1CCN(Cc2cc(=O)oc3ccc(Cl)cc23)CC1 > 76.9 µM, CS(=O)(=O)c1ccc(N2CCOCC2)c(S(C)(=O)=O)c1 > 76.9 µM, Cc1ccc(Nc2nc(N)nc(CN3CCN(C)CC3)n2)cc1C > 76.9 µM, CCOC(=O)c1[nH]c(C)c(C(=O)OCc2c(C)noc2C)c1C > 76.9 µM, CCn1c(SCC(=O)NCC2CCCO2)nnc1-c1c[nH]c2ccccc12 (configuration not stated) > 76.9 µM, CCCC(c1nnnn1Cc1ccco1)N1CCN(c2cc(Cl)ccc2C)CC1 (configuration not stated) > 76.9 µM, O=C(NC1CCCCCC1)C1c2ccccc2C(=O)N1CCCN1CCOCC1 (configuration not stated) > 76.9 µM, O=C(c1ccc(NS(=O)(=O)c2ccccc2)cc1)N1CCCC1 > 76.9 µM, COC(=O)Oc1nsnc1N1CCOCC1 > 76.9 µM, COC(=O)c1ccc(NC(=O)CSc2nncn2C)cc1 > 76.9 µM, CCCCn1cc(SCC(=O)O)c2ccccc21 > 76.9 µM, CCCNC(=O)NC(=O)CSc1nc2ccccc2n1CC(C)C > 76.9 µM, CCSc1nnc(NC(=O)CSc2nnc(Cc3cccn3C)n2-c2ccc(C)cc2)s1 > 76.9 µM, CCN(CC)C(=O)CSc1nc2cc3c(cc2c(=O)n1Cc1ccc2c(c1)OCO2)OCO3 > 76.9 µM, CCCc1ncc(C(=O)c2ccc(OC)cc2)n1C > 76.9 µM, CC1=CC(C)C2C(=O)N(CCCN(C)C)C(=O)C2C1 (configuration not stated) > 76.9 µM, Cc1ccc(S(=O)(=O)CC2CSc3nc(N)cc(=O)n32)cc1 (configuration not stated) > 76.9 µM, Cc1cccc(NC(=O)c2cc(S(=O)(=O)NCc3ccco3)ccc2F)c1C > 76.9 µM, O=c1cnn(-c2ccccc2)c(-c2ccccc2)c1 > 76.9 µM, CCCn1cc(SCC(=O)NCc2ccco2)c2ccccc21 > 76.9 µM, Cc1cc(C)c(C#N)c(N2CCSCC2)n1 > 76.9 µM, Cc1cc(C)nc(N(C#N)CCOc2ccccc2)n1 > 76.9 µM, O=C(NCC1CCCO1)c1ccc(N2CCCCC2)nc1 (configuration not stated) > 76.9 µM, COc1cc(CC(=O)Nc2sccc2C(N)=O)cc(OC)c1OC > 76.9 µM
